The structures appear in SMILES notation. Values joined by “and” are separate entries in the source; they are usually repeats but may differ in a detail not shown here. Equal entries are not always repeated. Screen size: about 340,000 compounds; about 6,900 (2%) were called active. Cut-off read from the data, not from the text of the source: active = inhibition above about 30%; inactive = below that, where a call was filed. This is a selection; strong and weak results do not stand in their true shares. Entries without a call were filed so in the source.

By inhibition is commonly meant the change of the read-out against control, counted positive when it falls.

UniProt P14416, sequence (P14416 whole entry, looked up): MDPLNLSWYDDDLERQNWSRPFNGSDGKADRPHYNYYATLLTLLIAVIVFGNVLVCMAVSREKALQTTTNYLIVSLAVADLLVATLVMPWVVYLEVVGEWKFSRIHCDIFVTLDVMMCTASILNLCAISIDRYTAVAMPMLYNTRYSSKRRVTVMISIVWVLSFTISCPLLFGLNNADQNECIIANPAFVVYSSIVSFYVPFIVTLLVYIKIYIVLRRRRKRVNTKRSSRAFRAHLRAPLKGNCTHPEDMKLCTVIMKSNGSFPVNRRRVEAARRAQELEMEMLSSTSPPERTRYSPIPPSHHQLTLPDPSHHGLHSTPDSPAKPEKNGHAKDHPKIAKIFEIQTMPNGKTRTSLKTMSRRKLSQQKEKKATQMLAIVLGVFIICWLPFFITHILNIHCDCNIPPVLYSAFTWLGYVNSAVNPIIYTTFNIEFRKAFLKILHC

The assay concerns the target D(2) dopamine receptor (Homo sapiens) (UniProt P14416). Put plainly: HTS Assay for Allosteric Antagonists of the Human D2 Dopamine Receptor: Primary Screen for Antagonists. Note: 0% is about no effect. Conditions: HEK293 TREx D2 cells, calcium flux, dopamine EC80; at 10 µM; stronger effect = higher value. In short, it runs like this:
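Overnight-induced (tetracycline, 30 C) HEK293 T-REx cells carrying force-coupled D2 receive a no-wash calcium dye, then compound, then EC80 dopamine at 180 s; signals are read kinetically throughout.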
A general note: Calcium assays in cells follow changes in intracellular calcium, usually with a dye or a luminescent sensor.
Regarding `Cc1ccc(C)c2sc(N3CCN(C(=O)c4ccco4)CC3)nc12`, the inhibition was 1.15%.
With `Cc1ccc(NC(=O)Cn2ncc3c4ccccc4n(Cc4ccccc4)c3c2=O)cc1Cl` the figure was -3.29%; with `Cc1cn2c(=O)c(S(=O)(=O)NC(C)c3ccccc3)c(C)nc2s1` (stereo not drawn), -0.41%; with `CN(C)C(=O)c1cc(C(=O)Cc2ccccc2)c[nH]1`, active: 37.3%.
As to `CCOc1ccc(NC(=O)c2ccc3c(c2)c(C)c(C)n3Cc2ccc(F)cc2)cc1`, the inhibition is 9.44%.
With `CC(=O)OC[C@H]1O[C@H](CCO/N=C(\C)CCN2CCCc3nc(C)c(C)cc32)C=C[C@@H]1OC(C)=O` the figure was active: 78.2%; with `Cc1ccc(NC(=O)c2cc(=O)n(Cc3ccccc3)c(=O)[nH]2)cc1C`, active: 33.7%; with `CC(=O)c1cccc(NC(=O)CN2C(=O)CN(C)C(=O)c3ccccc32)c1`, 3.06%.
With `Cc1cc(C)cc(N(C)S(=O)(=O)c2nnc(NC(=O)COc3ccc(Cl)cc3)s2)c1` the figure was 4.68%; with `Cn1c(=O)c2c(nc(SCC(=O)Nc3ccc(F)cc3)n2Cc2ccc(Cl)cc2)n(C)c1=O`, -1.49%; with `CCOc1ccc(Cn2c(CNS(=O)(=O)c3cccs3)nc3cccnc32)cc1`, -5.82%.
With `Cc1cccc(Cn2c(-c3cccs3)nc3ccccc32)c1` the figure was 2.85%; with `Cc1cccn2c(=O)c3cc(C#N)c(=O)n(Cc4cccnc4)c3nc12`, active: 40.6%.
Turning to `NC(=O)Cn1c(=O)n(-c2ccc(F)c(Cl)c2)c(=O)c2sc3ccccc3c21`, the inhibition is -3.72%.
Regarding `Cc1ccc(N2CCN(c3cc(C)nc4c(-c5ccc(Cl)cc5)c(C)nn34)CC2C)cc1` (stereo not drawn), the inhibition was 1.47%.
`CCc1nc(SCc2cc(=O)c3cc(F)ccc3[nH]2)n[nH]1`: the inhibition is -10.2%.
In the case of `OC1(c2cccc(F)c2)CCN(Cc2ccncc2)CC1`, the inhibition was active: 55.8%.
For `CCn1ccc2cc(S(=O)(=O)N3CCCN(C(=O)Nc4ccc(C)cc4)CC3)ccc21`, the inhibition was 3.87%.
With `Cc1ccc(S(=O)(=O)c2nnn3c2nc(N2CCCCC2)c2sccc23)cc1` the figure was -26.8%; with `CCN(CC)S(=O)(=O)c1ccc(NC(=O)[C@H](CCSC)N2Cc3ccccc3C2=O)cc1`, 10.9%; with `COc1ccc(NS(=O)(=O)c2ccc3c(c2)oc(=O)n3C)cc1Cl`, -4.16%.
With `COc1cccc(NC(=O)c2nnn(Cc3cccc(C(F)(F)F)c3)c2N)c1` the figure was 0.919%; with `Cc1cccc(CN2C(=O)c3ccccc3S(=O)(=O)c3ccc(C(=O)N4CCCC4)cc32)c1`, 5.92%; with `COc1ccc(OC)c(S(=O)(=O)Nc2ccc3[nH]c(=O)[nH]c3c2)c1`, -7.06%.
For the compound `CCc1ccc(OCC(=O)Nc2c(C(=O)c3ccccc3)oc3ccccc23)cc1`, the inhibition was determined as 1.88%.
Regarding `Cc1nc(-c2cccc(S(=O)(=O)N3CCC(C(=O)NCc4ccccc4)CC3)c2)no1`, the inhibition was 25.1%.
With `Cc1cc(=O)n2nc(N3CCC(C(=O)NCc4ccccc4Cl)CC3)sc2n1` the figure was 5.3%; with `Cc1ccccc1NC(=O)CCc1c(C)nc2c(c1C)c(=O)n(C)c(=O)n2C`, -7.13%; with `CCCN(C(=O)Cn1cnc2sc(C)c(S(=O)(=O)N3CCN(c4ncccn4)CC3)c2c1=O)c1cccc(C)c1`, -6.4%.
With `COc1ccc(Cc2nnc(NC(=O)c3cc(OC)c(OC)c(OC)c3)s2)cc1OC` the figure was active: 34.9%; with `CCOC(=O)c1ccc(NC(=O)c2nsc3ccccc23)cc1`, -11.6%.
In the case of `CN1CCc2nc3sc(C(=O)Nc4c(F)cccc4F)c(N)c3cc2C1`, the inhibition is 3.15%.
Take `C/C=C(\C)CN1CCN(c2ccccc2)CC1`: the inhibition was active: 74.8%.
Regarding `Cc1ccc(-c2cnc(NCc3c(F)cccc3Cl)n2C)cc1`, the inhibition was 12.3%.
For the compound `CCOc1ccc(NC(=O)Cn2c(=O)c(CNc3ccc(OC)cc3)cc3ccc(OC)cc32)cc1`, the inhibition turned out to be 2.31%.
Regarding `CCOC(=O)c1cc(S(=O)(=O)N2CCN(c3cc(Cl)ccc3C)CC2)[nH]n1`, the inhibition was determined as 16.5%.
With `Cc1oc(-c2ccccc2Cl)nc1CS(=O)(=O)CC(=O)NC(C)CCc1ccccc1` (stereo not drawn) the figure was -1.34%; with `CC(Sc1nnnn1C1CC1)C(=O)N1CC(=O)Nc2ccccc21` (stereo not drawn), active: 47%; with `COc1ccc(C(=O)Nc2nc3nc(C)c(Cl)c(=O)n3[nH]2)cc1`, 10.1%.
With `COc1ccccc1N1CCN(Cc2cc(OC)c3c(c2)OCO3)CC1` the figure was active: 85.7%; with `Cc1ccc2nc(Cl)c3cc(C(=O)NC4CCCCC4)sc3c2c1`, 17.6%; with `COc1ccc(NC(=O)CC2C(=O)N(c3cccc(OC)c3)C(=O)N2Cc2cccnc2)cc1` (stereo not drawn), 3.3%.
As to `Cc1ccc(-n2c(CNc3ccc(F)cc3)nnc2SCC(=O)NCc2ccco2)cc1`, the inhibition is active: 33.9%.
As for `COc1ccc(OC)c(NC(=O)C(NS(=O)(=O)c2ccc3c(c2)CCCC(=O)N3)C(C)C)c1` (stereo not drawn), the inhibition was found to be 5.36%.
As to `Cc1ccc(-n2nc3c(N4CCC(C(=O)N(C)Cc5ccccc5)CC4)nnc(C)c3c2C)cc1`, the inhibition is -1.4%.
With `Cc1ccc(C)c(S(=O)(=O)n2nc(C)c(S(=O)(=O)N3CCC(C)CC3)c2C)c1` the figure was -0.0268%.
With `CC(=O)Nc1ccc(S(=O)(=O)Nc2nc3n(n2)C(c2ccccc2)C=C(c2ccc(Cl)cc2)N3)cc1` (stereo not drawn) the figure was 10.2%.
With `O=C(NCCN1CCCCC1)c1ccc(Cn2c(SCc3ccc(F)cc3)nc3cccnc32)cc1` the figure was 21.1%; with `CN(C)c1ccc(CN(Cc2ccco2)C(=O)c2ccc(F)cc2)cc1`, -1.72%; with `O=C(NCc1ccc2c(c1)OCO2)C1CCC(CNS(=O)(=O)c2cccc3nsnc23)CC1` (stereo not drawn), active: 35%.
With `COc1ccccc1CNC(=O)CCC(=O)N1Cc2ccccc2Oc2ncccc21`, the inhibition worked out at 5.29%.
With `CC(=O)Nc1cccc(NC(=O)Cc2csc(COc3cccc(C)c3)n2)c1` the figure was 1.39%.
With `COc1ccccc1N1CCN(S(=O)(=O)c2ccc(-n3cnnn3)cc2)CC1` the figure was -14.4%; with `CCOC(=O)N1CCc2c(sc3c2c(=O)n(-c2ccc(CC)cc2)c(=O)n3Cc2cccc(OC)c2)C1`, 12.2%.
For `CCc1ccc(S(=O)(=O)N(C(C)=O)c2ccc3oc4c(c3c2)CCCC4)cc1`, the inhibition is 23.7%.
As for `CCOc1ccc(C(=O)Nc2ccc3c(c2)N(C(C)=O)CCC3)cc1OCC`, the inhibition is -15.3%.
With `COc1ccc(NS(=O)(=O)c2ccc3c(c2)NC(=O)CCS3)c(OC)c1` the figure was -2.38%.
`CCC(C(=O)Nc1cc(C)ccc1OC)n1nnc(C(=O)OC)c1C(=O)OC` (stereo not drawn): the inhibition is -5.96%.
Turning to `CCOc1ccc(C2c3c(oc4cc(C)c(C)cc4c3=O)C(=O)N2c2ccccn2)cc1` (stereo not drawn), the inhibition came out at 6.14%.
For `COc1cccc(N2CCN(C(=O)c3c4c(nc5ccccc35)C(=O)N(C3CCCCC3)C4)CC2)c1`, the inhibition was -7.53%.
With `Cc1cc(SCC(=O)Nc2nsc(-c3ccc(C(C)(C)C)cc3)n2)nc2ccccc12` the figure was 8.69%; with `CS(=O)(=O)N1CCCC(C(=O)N2CCN(c3cccc(Cl)c3)CC2)C1` (stereo not drawn), active: 31.2%.
With `COc1ccc(OCc2nc(C#N)c(NCc3ccccc3Cl)o2)cc1` the figure was 10.9%.
Turning to `COc1ccc(-c2nc3sc(CCNS(=O)(=O)c4c(C)cc(C)cc4C)c(C)n3n2)cc1`, the inhibition was -10.8%.
Take `COc1cc(Cl)c(C)cc1Nc1nnc(-n2nc(C)cc2C)c2ccccc12`: the inhibition came out at 6.64%.
Turning to `CCc1cccc(NC(=O)C(Cc2ccccc2)NS(=O)(=O)c2ccc3c(c2)c(=O)n(C)c(=O)n3C)c1` (stereo not drawn), the inhibition is -7.94%.
In the case of `c1cnc(N2CCN(Cc3ccc4c(c3)OCO4)CC2)nc1`, the inhibition was active: 86.6% and active: 88.5%.
With `Cc1ccc(NC(=O)CSc2nccn2Cc2ccc3c(c2)OCO3)c(C)c1` the figure was -3.79%; with `Cc1ccc(C(=O)/C=C/c2cn(CC(O)CN3CCCCCC3)c3ccccc23)cc1` (stereo not drawn), -0.336%.
With `CCC1=C(c2ccc(C)cc2)S(=O)(=O)N=C1N1CCC(C(=O)NCc2ccc(C)cc2)CC1` the figure was -2.24%.
With `Cc1cc(C)c(NC(=O)CN(C)S(=O)(=O)c2ccc3c(c2)c(=O)n(C)c(=O)n3C)c(C)c1` the figure was 9.55%; with `CCC(C)NC(=O)CCC(=O)NNc1nc2ccccc2c2nc(C)nn12` (stereo not drawn), 0.742%; with `O=C(Nc1ccc(F)cc1F)N1CCc2c(sc3c2CCCC3)C1c1ccc(F)cc1` (stereo not drawn), -24.3%.
For `Cc1ccc(-c2nn3c(=O)cc(CN4CCN(C(=O)c5ccc(C(C)(C)C)cc5)CC4)nc3s2)cc1`, the inhibition worked out at 2.42%.
With `COCCn1c(=NC(=O)c2ccc3c(c2)OCCO3)sc2cc(NC(C)=O)ccc21` the figure was 4.9%; with `CCc1ccc(S(=O)(=O)n2ccnc2)cc1`, -6.59%.
With `COc1cc(NS(=O)(=O)c2ccc(NC(=O)c3ccc(OC)c(Br)c3)cc2)nc(OC)n1` the figure was 12.1%; with `CC1(NC(=O)C2CCCCC2)CCS(=O)(=O)C1` (stereo not drawn), active: 42%.
`CC(C)c1ccc(NC(=O)CN2C(=O)CCc3cc(S(=O)(=O)N4CCOCC4)ccc32)cc1`: the inhibition was 0.444%.
With `COc1ccc(C(=O)N2CCN(C(=O)COc3ccc(C)cc3)CC2)cc1OC` the figure was -22.7%.
With `COc1cc2c(C(=O)N3CCN(c4cc(Cl)ccc4C)CC3)cn(CC(C)C)c(=O)c2cc1OC` the figure was -16.4%.
With `COc1ccc(S(=O)(=O)NCCc2sc(-c3cccc(F)c3)nc2C)cc1` the figure was -13.7%.
For the compound `O=C(Cn1cc(S(=O)(=O)N2CCN(c3ccccc3F)CC2)c2ccccc2c1=O)Nc1ccc(F)cc1Cl`, the inhibition is -5.23%.
With `CC(C)c1ccc(NC(=O)c2ccc(F)c(S(=O)(=O)N3CCN(c4ccccc4F)CC3)c2)cc1` the figure was 5.68%; with `Cc1ccc(C)c(NS(=O)(=O)c2ccc(OCC(=O)N3CCOCC3)cc2)c1`, active: 32.3%; with `Cc1ccc(Cl)cc1N1CCN(S(=O)(=O)c2ccc(-c3cnc(C4CC4)o3)cc2)CC1`, -4.29%.
With `COc1ccc(S(=O)(=O)NCCc2sc(-c3ccccc3)nc2C)cc1F` the figure was 11.1%; with `CC(=O)c1ccc(NC(=O)c2cc(C3CC3)nc3c2c(C)nn3-c2ccc(C)cc2)cc1`, 5.02%.
In the case of `COc1ccc(C(=O)NC2CCN(S(=O)(=O)c3ccccc3F)CC2)cc1`, the inhibition was active: 32.6%.
Take `COc1ccc(Cl)cc1NC(=O)Cn1nnc(C(=O)NCc2ccc3c(c2)OCO3)c1N`: the inhibition is -8.7%.
With `COC(=O)c1sccc1S(=O)(=O)N1CCN(c2ccc(C(C)=O)cc2)CC1` the figure was 28.3%; with `Cn1c(=O)c2c(n3c4ccccc4nc13)NC(=O)CC2c1cccc(Cl)c1` (stereo not drawn), 15.9%.
Regarding `CCN(CC)CCOC(=O)c1ccc(NC(=O)c2cc3cccc(OC)c3oc2=O)cc1`, the inhibition is -10.3%.
